Usually % Inhibition stands for the change of the read-out against control, counted positive when it falls.

From ChEMBL document CHEMBL4888484, “Replenishing the malaria drug discovery pipeline: Screening and hit evaluation of the MMV Hit Generation Library 1 (HGL1) against asexual blood stage Plasmodium falciparum ,using a nano luciferase reporter read-out” (2022) come the findings set out here.

About 540 (0.36%) of roughly 150,000 compounds showed an effect of 50% or more. The list shows a part of the results.

The assay deals with Plasmodium falciparum. Put plainly: Primary screen in NF54 nanoGlo assay, in single point, at 2uM, 72h; a lower Z score goes with more inhibition. Particulars: timepoint 72 hour. It is filed as functional, Erythrocyte.
With `COC(=O)[C@H]1CC(=O)N(OCc2ccc3ccccc3c2)C12CCN(Cc1cc3ccccc3[nH]1)CC2`, the “% Inhibition” value is -11% and the Z score was determined as 1.7.
Take `CCn1nccc1S(=O)(=O)N1CCC[C@H](CNC(=O)c2cccnc2)C1`: the “% Inhibition” value is recorded as -9% and the Z score is listed as 1.55.
The matching figures for `CN(C)CCn1nccc1C(=O)N[C@H]1C[C@H](c2ccc(F)cc2F)C1`: 9% and -1.43.
In the same order, the values of `Cc1cc2c(N3CCC[C@H](N4CCNCC4=O)C3)nccn2n1` are 4% and -0.57.
In the same order, the values of `Cc1nn(C(C)(C)C)c(C)c1C(=O)N1CCC(C(=O)Nc2ccc3c(c2)OCO3)CC1` are 1% and -0.06.
For the compound `CC1(C)OCC[C@@H]1CNC(=O)NCc1ccc(C2CC2)cc1F`, the “% Inhibition” value is recorded as -7% and the Z score is given as 1.3.
The matching figures for `CS(=O)(=O)NC[C@H]1OC[C@@H](N(Cc2ccccc2)Cc2ccccc2)[C@@H]1O`: -8% and 1.36.
Regarding `CN(C)c1noc(C2CCN(C(=O)c3ccc4nccn4c3)CC2)n1`, the “% Inhibition” value is listed as -9% and the Z score is given as 1.4.
In the same order, the values of `CCOc1ccc(NC(=O)Cn2nc3c(Oc4ccc(C)cc4)nc4ccccc4n3c2=O)cc1` are -15% and 2.09.
In the same order, the values of `c1ccc(-c2nc(-c3ccc(N4CCOCC4)cc3)no2)nc1` are 1% and -0.23.
In the same order, the values of `CC(C)c1cnc(Cn2nc3ccccn3c2=O)o1` are -3% and 0.59.
On to `c1ccc(COc2ccc([C@H]3C[C@@H](c4ccccc4)Nc4ncnn43)cc2)cc1`, for which the “% Inhibition” value was -4% and the Z score worked out at 0.53.
In the same order, the values of `Cc1c(C#N)c(NC(=O)CN(C)C2CCN(c3ccccn3)CC2)n(Cc2ccco2)c1C` are -1% and 0.1.
On to `O=C(Cc1ccc(CO)cc1)NCc1cccnc1Oc1ccc(F)c(F)c1`, for which the “% Inhibition” value was determined as 10% and the Z score is listed as -1.39.
In the same order, the values of `O=c1ccc(-c2noc(/C=C/c3ccccc3Cl)n2)c[nH]1` are -14% and 2.65.
The matching figures for `CC(=O)N1CCN(c2nc(C3CCOCC3)nc3c2cnn3-c2ccccc2)CC1`: 0% and -0.06.
In the same order, the values of `O=C(CCC1CCN(Cc2cccc3nonc23)CC1)NCc1cccnc1` are 3% and -0.56.
With `O=C(NCc1ccccc1F)c1c(O)c2cnn(Cc3ccccc3)c2[nH]c1=O`, the “% Inhibition” value is reported as 1% and the Z score is reported as -0.19.
In the same order, the values of `COc1ccc(-c2cnnc(NC[C@H](C)c3ccccc3)n2)cc1` are -9% and 1.26.
The matching figures for `CN(C)Cc1ccc(-c2cccc3c2CNC3=O)cc1F`: 1% and -0.1.
The matching figures for `Cc1cccc(OCc2nc(C(=O)NC[C@H]3CCCO3)cs2)c1`: -8% and 1.54.
`FC(F)Cn1c(Cc2ccccn2)nnc1N1CCC2(CCCCC2)CC1`: the “% Inhibition” value was determined as 3% and the Z score is listed as -0.65.
In the same order, the values of `CC(c1nccs1)N(C)C(=O)CC1(c2cccc(F)c2)CC(=O)N(CCN(C)C)C1=O` (stereo not drawn) are -8% and 1.31.
The matching figures for `CN1CC(=O)N(c2cccc(C(=O)NC3CC3)c2)C1=O`: -4% and 0.84.
The matching figures for `Cc1cccc(C)c1C(=O)NCC(C)(C)CCS(C)(=O)=O`: -9% and 1.18.
Regarding `O=C(NCC1(O)CCCCCC1)c1ccccc1`, the “% Inhibition” value was found to be 0% and the Z score is on record as -0.05.
With `c1cc(CN2CCN(c3ncnc4c3CCCC4)CC2)ccn1`, the “% Inhibition” value is on record as -5% and the Z score came out at 0.71.
With `O=C(CS(=O)(=O)c1ccc(Br)cc1)N1CCCC1`, the “% Inhibition” value is -10% and the Z score was 0.86.
In the same order, the values of `C[C@H](NCC(C)(C)c1ccccc1Br)c1nccs1` are 2% and -0.17.
The matching figures for `CCOC(=O)[C@@H]1CCCCN1S(=O)(=O)C1(C)CC1`: -2% and 0.29.
In the same order, the values of `Cc1c(-c2ccccc2)nn2c(=O)cc(CCc3ccccc3F)[nH]c12` are -20% and 1.8.
`COc1ccc(-c2c(N)n(CCc3ccccc3)c(=O)c3ccccc23)cc1OC`: the “% Inhibition” value is listed as 4% and the Z score is -0.5.
The matching figures for `CC(C)N1C[C@H]2CN(C(=O)Cc3ccccc3Cl)C[C@@]2(C(=O)N2CCCC2)C1`: -8% and 1.52.
In the same order, the values of `O=C(NCCc1ccc(C2CCCCC2)cc1)[C@@H]1CNCCO1` are -8% and 0.78.
In the same order, the values of `Cc1c(NC(C)C2CCOC2)cccc1N(C)C` (stereo not drawn) are -7% and 0.98.
As for `CN1CCN(c2nc(N)nc(N)c2S(=O)(=O)c2ccccc2)CC1`, the “% Inhibition” value is 2% and the Z score is -0.25.
In the same order, the values of `COCCOCCNC(=O)c1nc(C)sc1Br` are -6% and 0.94.
The matching figures for `O=C(Cn1cnc2ccccc2c1=O)NCc1cn(-c2cccnc2)nn1`: 4% and -0.56.
In the case of `O=S(=O)(CCc1ccc2c(c1)CCO2)N1CCC[C@H]1c1cccc(F)c1`, the “% Inhibition” value is -4% and the Z score was 0.58.
In the same order, the values of `C[C@H](NC(=O)N1CC2COCC(C1)O2)c1ccc(Br)cc1F` are 4% and -0.37.
Consider `Cc1cc(CNC(=O)CCN2Cc3cc(Cl)ccc3O[C@@H](C)C2)nn1C`, for which the “% Inhibition” value is 9% and the Z score is -1.63.
The matching figures for `CCOn1c(-c2ccc(F)cc2)nc2c1OC=NN2OCc1ccccc1`: 35% and -0.68.
Take `Cc1nc2ccc(-c3nc(C(C)C)nn3CCO)cc2nc1C`: the “% Inhibition” value is -4% and the Z score was 0.45.
In the same order, the values of `Cc1cccc(N2C(=O)CN(Cc3ccccc3C)[C@H]3CS(=O)(=O)C[C@H]32)c1` are -3% and 0.46.
Take `CC(C)n1ncc(C(=O)N2CCCOc3ccccc32)c1Cl`: the “% Inhibition” value is listed as 7% and the Z score is reported as -0.68.
In the same order, the values of `COCCCN1Cc2cc(NC(=O)c3ccccc3)ccc2O[C@@H](C)C1=O` are 1% and -0.15.
As for `c1cnn(CCNCc2csc(C3CCCC3)n2)c1`, the “% Inhibition” value was found to be 0% and the Z score was determined as 0.01.
In the same order, the values of `CCOC(=O)c1[nH]c(C)c(C(=O)N2CCC(CC(=O)NCc3cccnc3)CC2)c1C` are -22% and 1.92.
The matching figures for `CCNC(=O)N[C@H]1CO[C@H]2[C@@H]1OC[C@@H]2Nc1nccc(-c2ccc(-c3ccccc3)cc2)n1`: 36% and -0.96.
Turning to `CC(C)c1cccc(N(C)Cc2nnc(C3CCC3)o2)c1`, the “% Inhibition” value was -14% and the Z score was determined as 1.19.
In the same order, the values of `CC1(C)[C@@H](C(=O)NCc2cncc(O)c2)[C@@H]1c1ccccc1` are -11% and 1.49.
On to `CCCN1CC[C@H](CNC(=O)c2cnn(Cc3ccccc3)c2)C1`, for which the “% Inhibition” value was found to be 30% and the Z score is given as -3.38.
Consider `CCCCN1CCN([C@@H](C(=O)NCc2nccs2)c2ccccc2)C(=O)C1=O`, for which the “% Inhibition” value was -15% and the Z score stood at 2.84.
In the same order, the values of `CCc1nc(C)c(CN2CCC(CCC(=O)Nc3ccccc3Cl)CC2)[nH]1` are -9% and 1.01.
The matching figures for `Nc1[nH]nc(C(=O)N[C@H]2CCOC[C@@H]2Oc2ccccn2)c1Cl`: -11% and 1.29.
In the same order, the values of `CNC(=O)[C@H]1CCN(Cc2cnc3c(-c4ccccc4)cnn3c2)C1` are -13% and 1.63.
Take `CC(C)c1nnc(NC(=O)C2=NN(c3ccccc3)C(=O)CC2)s1`: the “% Inhibition” value is reported as -4% and the Z score amounted to 0.4.
The matching figures for `CCN(CC(C)C(=O)O)C(=O)COC1CCCCC1C` (stereo not drawn): -6% and 0.54.
In the same order, the values of `CN(C)c1ccc(CN2CC(N3CCCCC3)C2)cn1` are -13% and 1.82.
Consider `COc1ccccc1N1CCN(C(=O)c2cc(C3CC3)[nH]n2)CC1`, for which the “% Inhibition” value was determined as 0% and the Z score is recorded as -0.04.
The matching figures for `Cc1cc(C)cc(NC(=O)N2C[C@H](c3nc(C)no3)C3(CCOCC3)C2)c1`: -1% and 0.18.
In the same order, the values of `CN(Cc1cccc(=O)[nH]1)C(=O)Nc1cc2c([nH]c1=O)CCCC2` are -16% and 3.1.
The matching figures for `C[C@H](NC(N)=O)C(=O)NCCc1cccc(Cl)c1`: -6% and 0.74.
Consider `Cc1nn(C)c(-c2nc(CC(N)=O)n[nH]2)c1Cl`, for which the “% Inhibition” value was -4% and the Z score was 0.49.
In the same order, the values of `CC(C)(C)/N=C1\[C@@H](N2CCCC2)C2(CCCCC2)C(=O)N1c1ccccc1` are -35% and 4.11.
The matching figures for `Cc1ccc(C)c2sc(N(C)CC(=O)NC3CCN(Cc4ccccc4)CC3)nc12`: -5% and 0.96.
The matching figures for `Cc1ccc(Cl)cc1NC(=O)Cn1nc2c(N3CCC[C@H](C)C3)nccn2c1=O`: -10% and 1.26.
As to `CC(C)Oc1cc(CN(c2ccc3nnnn3n2)C2CC2)ccn1`, the “% Inhibition” value is given as -3% and the Z score worked out at 0.43.
In the same order, the values of `Cn1cc(-c2ccc(F)cc2)cc1C(=O)NCc1cccs1` are 7% and -1.08.
In the same order, the values of `O=C(NCC1(C2(O)CCC2)CC1)[C@@H]1CCCc2[nH]nnc21` are -3% and 0.59.
In the case of `COc1cc2c(cc1F)CN(Cc1nnc(C)s1)CC2`, the “% Inhibition” value is given as -9% and the Z score is listed as 1.46.
In the same order, the values of `CCc1nnsc1C(=O)N(Cc1ccc2c(c1)CCO2)C1CCCC1` are -5% and 0.69.
As to `O=C(NCC1(Cc2ccc(F)cc2)CCCC1O)c1cnns1` (stereo not drawn), the “% Inhibition” value is given as 0% and the Z score is recorded as -0.02.
The matching figures for `Cc1cccc(CN(Cc2ccccn2)C(=O)c2cnsn2)c1`: -1% and 0.19.
The matching figures for `CCN(CC)c1ccc(CNC(=O)c2cccnc2O)cc1F`: -2% and 0.26.
The matching figures for `O=C(c1cccc(CO)c1)N1CCC[C@H](c2ccncc2)CC1`: -5% and 0.95.
On to `N#Cc1ccc(C(=O)N2CCC3(CCC(=O)N(Cc4ccccn4)C3)CC2)cc1`, for which the “% Inhibition” value is -2% and the Z score was found to be 0.37.
In the same order, the values of `COc1cc2c(cc1OC)C(NC(=O)[C@H](C)N1Cc3ccccc3C1=O)CC2` (stereo partly drawn) are 6% and -0.75.
The matching figures for `CC1CN(C(=O)c2cn(Cc3cccs3)nn2)CC1N(C)C` (stereo not drawn): -14% and 1.4.
For the compound `Cc1ccc(NS(=O)(=O)c2ccc3c(c2)sc(=O)n3CCC(=O)N2CCCCC2)c(Cl)c1`, the “% Inhibition” value is 9% and the Z score is -1.
In the same order, the values of `CCCn1nc2nc(Nc3ccc(F)c(C)c3)cc(C)n2c1=O` are -15% and 1.65.
As for `Cn1c(-c2ccc(Br)cc2)cn2cc(-c3cccc(Cl)c3)nc12`, the “% Inhibition” value was -1% and the Z score turned out to be 0.08.
As for `COCCNC(=O)C(=O)NCCc1ccc(OC)cc1`, the “% Inhibition” value is listed as -13% and the Z score is 2.07.
The matching figures for `COc1cccc(CC(=O)Nc2ccc3c(c2)CCN(C)C3=O)c1`: 0% and 0.07.
